Experimental data as given in PMC4336329 (PLoS ONE, 2015).
Out of some 310,000 compounds screened, about 2,200 (0.71%) showed an effect of 50% or more. Effects have a minus sign here. The list shows a part of the results.

Target: human ether-à-go-go-related gene (hERG) potassium channel (human, UniProt Q12809)
Test: primary screen, population patch clamp on CHO cells stably expressing hERG

Sequence of human ether-à-go-go-related gene (hERG) potassium channel (Q12809 whole entry, looked up): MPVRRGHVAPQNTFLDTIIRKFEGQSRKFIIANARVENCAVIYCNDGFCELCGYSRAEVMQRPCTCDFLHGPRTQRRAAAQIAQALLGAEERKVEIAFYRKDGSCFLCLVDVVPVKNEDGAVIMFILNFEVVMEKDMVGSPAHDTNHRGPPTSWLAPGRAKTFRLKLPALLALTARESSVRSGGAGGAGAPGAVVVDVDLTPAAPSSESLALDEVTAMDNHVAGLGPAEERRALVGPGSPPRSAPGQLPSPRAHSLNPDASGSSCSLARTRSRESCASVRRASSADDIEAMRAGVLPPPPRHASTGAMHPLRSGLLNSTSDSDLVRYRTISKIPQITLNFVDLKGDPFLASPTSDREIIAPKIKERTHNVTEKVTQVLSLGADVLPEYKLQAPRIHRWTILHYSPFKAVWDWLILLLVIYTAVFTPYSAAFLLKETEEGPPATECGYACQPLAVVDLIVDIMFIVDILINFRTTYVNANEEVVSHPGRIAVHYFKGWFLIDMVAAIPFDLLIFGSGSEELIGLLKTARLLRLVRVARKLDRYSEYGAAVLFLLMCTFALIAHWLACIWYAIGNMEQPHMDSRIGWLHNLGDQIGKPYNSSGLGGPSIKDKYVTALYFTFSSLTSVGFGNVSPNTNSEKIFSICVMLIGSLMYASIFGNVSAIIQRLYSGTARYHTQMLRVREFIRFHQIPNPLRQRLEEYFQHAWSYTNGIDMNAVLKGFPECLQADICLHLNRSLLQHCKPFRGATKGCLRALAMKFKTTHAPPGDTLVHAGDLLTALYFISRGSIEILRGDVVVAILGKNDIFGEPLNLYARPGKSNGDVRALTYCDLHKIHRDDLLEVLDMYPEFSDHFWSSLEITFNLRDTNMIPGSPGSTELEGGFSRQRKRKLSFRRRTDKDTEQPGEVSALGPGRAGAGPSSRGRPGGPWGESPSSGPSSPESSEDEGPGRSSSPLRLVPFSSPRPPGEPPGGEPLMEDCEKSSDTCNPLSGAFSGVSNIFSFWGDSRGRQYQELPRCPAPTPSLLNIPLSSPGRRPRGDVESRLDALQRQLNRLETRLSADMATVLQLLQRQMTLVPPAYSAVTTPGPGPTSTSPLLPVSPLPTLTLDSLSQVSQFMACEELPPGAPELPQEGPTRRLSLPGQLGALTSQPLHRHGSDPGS

Row | SMILES | hERG current change (%, negative = inhibition) at 1uM [%]
1 | CC1(C)NC(=O)N(CC(O)CN2CCOCC2)C1=O (stereo not drawn) | -0.0262
2 | COc1ccnc2c1c(=O)n(Cc1c(F)cccc1Cl)c(=O)n2C | -14.5
3 | OCC1CCCN(Cc2cn(Cc3ccccc3)nc2-c2cc3ccccc3o2)C1 (stereo not drawn) | 2.85
4 | O=C1CN(C(=O)NCC(=O)N[C@H](C(=O)O)c2ccccc2)c2ccccc2N1 | 4.27
5 | CCOC(=O)C1=C(C)NC(C)=C(C(=O)OCC)C1c1cc2ccc(C)cc2[nH]c1=O | 13.7
6 | O=C(COC(=O)CNC(=O)c1ccccc1)Nc1ccc(S(=O)(=O)N2CCCC2)cc1 | 6.66
7 | Cc1ccc(S(=O)(=O)N2CCOCC2)cc1NC(=O)CSc1nc(N)cc(=O)[nH]1 | 8.89
8 | C=CCN(CC=C)C(=O)c1c(OC)cccc1OC | 0.554
9 | Clc1ccccc1C1CC(c2ccccc2)Nc2ncnn21 (stereo not drawn) | 2.51
10 | C/C(=N\NC(=O)c1ccc(CSc2nncn2C)cc1)c1ccc(Cl)cc1 | 10.2
11 | CCC(O)CNc1nc(SC)nc2sc3c(c12)CCN(C)C3 (stereo not drawn) | 8.27
12 | C/C(=N\NC(=O)c1c(Cl)c(C)nn1C)c1ccc(NC(=O)C2CCC2)cc1 | 7.97
13 | Cc1ccnc(N2CCC(C(=O)Nc3ccc(Oc4ccccc4)cc3)CC2)n1 | -0.266
14 | CN(CC(=O)Nc1ccccc1Cl)C(=O)Cn1cc(C(F)(F)F)cc(Cl)c1=O | 9.42
15 | COc1ccc(Nc2ncc(C(=O)N3CCC(C(N)=O)CC3)c3ccccc23)cc1 | 11.5
16 | CN1CCN(S(=O)(=O)c2ccc3[nH]cc(C(=O)O)c(=O)c3c2)CC1 | -3.21
17 | CCCCn1c(SCc2nnc(-c3ccccc3)o2)nc2c1c(=O)n(C)c(=O)n2C | -8.35
18 | O=C(O)c1ccccc1C(=O)Nc1ccccc1NC(=O)c1ccccc1C(=O)O | 0.983
19 | CNC(=O)c1ccsc1NC(=O)CS(=O)(=O)c1ccccc1 | 5.1
20 | CN(C)CCNCc1ccc(OC2CCCC2)cc1.Cl | 0.362
21 | CN(C)c1ccc(/C=C/c2nc3ccccc3s2)cc1 | 12.5
22 | Clc1cccc(NCc2nnc(SCc3ccc(Cl)cc3Cl)o2)c1 | -0.354
23 | CC(=O)Nc1ccc2nc(NC(=O)c3cccnc3)sc2c1 | -1.25
24 | O=C(O)c1ccc(/C=C2/SC(=S)N(Cc3ccccc3)C2=O)cc1 | 11.5
